The source of these data is PubChem BioAssay AID1240 (Sanford-Burnham Center for Chemical Genomics, 2008).

In all, about 50,000 compounds went through this assay and about 800 (1.6%) showed an effect of 50% or more. The list shows a part of the results.

The experiment concerns the target Bcl-2-like protein 10 (Homo sapiens) (UniProt Q9HD36). The experiment can be described thus: TR3 peptide-Bcl-B binding displacers, biochemical primary FP assay, phenotype converters (AID 1240).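 Also: 0% = Bcl-B with tracer peptide and DMSO and 100% = tracer peptide lacking Bcl-B.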 Particulars: GST-Bcl-B / FITC-TR3 peptide fluorescence polarization; stronger effect = higher value; compound at 3.75 mg/L.
Chain of UniProt Q9HD36 (Q9HD36 whole entry, looked up): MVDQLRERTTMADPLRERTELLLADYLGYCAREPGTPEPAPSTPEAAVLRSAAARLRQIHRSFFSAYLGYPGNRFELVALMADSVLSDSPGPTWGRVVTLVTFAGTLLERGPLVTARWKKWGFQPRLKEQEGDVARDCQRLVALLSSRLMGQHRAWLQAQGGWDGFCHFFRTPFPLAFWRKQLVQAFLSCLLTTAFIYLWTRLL
For the compound `CCN(CC)c1ccc(/C=C2\C(=O)NC(=O)N(c3ccccc3OC)C2=O)cc1`, the displacement was determined as 0.3%.

As for `O=C(Nc1cc(Cl)cc(Cl)c1)c1ccc2c(c1)OCCO2`, the displacement came out at 12.3%.

As to `Cc1ccc(OCCCn2ccnc2)cc1`, the displacement was -4.6%.

In the case of `CCCC(=O)NC(c1ccc(Cl)cc1)c1ccc2cccnc2c1O` (stereo unspecified), the displacement stood at 9%.

`COc1cc(OC)c(OC)cc1/C=N/N=C(\N)c1nonc1N`: the displacement was found to be 2.3%.

Consider `CS(=O)(=O)N(CC(=O)Nc1ccc(Cl)c(Cl)c1)c1ccc(Cl)cc1`, for which the displacement was -0.1%.

With `CC1=C(C)CC2C(=O)N(c3ccc(-c4ccc([N+](=O)[O-])cc4)cc3)C(=O)C2C1` (stereo unspecified), the displacement turned out to be 20.7%.

For the compound `NC1=NC(=O)/C(=C/c2ccccc2OCc2cccc3ccccc23)S1`, the displacement is 14.8%.

As to `Cc1ccc2c(c1)c1c3n2CCN(CC(O)CNCN2CCCCCC2)C3CCC1` (stereo unspecified), the displacement is -4.4%.

For `O=C(NCCN1CCN(Cc2ccccc2Cl)CC1)C(=O)Nc1ccc(F)cc1`, the displacement worked out at 2.2%.

For `Cc1ccc(OCCOCCOc2ccc(Cl)cc2/C=N\n2cnnc2)cc1`, the displacement was -24.8%.

On to `COc1cc(OC)cc(C(=O)N2CCN(C3CCCCCC3)CC2)c1`, for which the displacement was -9%.

For `COc1cc(/C=C2\C(=O)N(c3ccc(S(N)(=O)=O)cc3)N=C2C)cc(Cl)c1O`, the displacement came to 9%.

`CCOC(=O)c1ccc(NC(=O)Cc2ccccc2OC)cc1`: the displacement was -12.8%.

`O=C(Nc1ccc(S(=O)(=O)NC(=O)C2CCCCC2)cc1)c1ccccc1Cl`: the displacement was -3.7%.

As for `COc1ccccc1N(S(=O)(=O)c1ccccc1)S(=O)(=O)c1ccccc1`, the displacement was -3.3%.

Consider `Cc1ccc(Cl)c(OCCN2CCOCC2)c1`, for which the displacement is -2.6%.

For `Cc1ccc(NC(=O)c2ccc(Br)o2)cc1Cl`, the displacement was found to be 22.6%.

For `O=S(=O)(NCCOCc1ccccc1)c1ccccc1`, the displacement was -2.3%.

As to `CCc1ccc(-c2nc(-c3ccccn3)no2)cc1`, the displacement was -3.8%.

In the case of `Clc1ccccc1CSc1nc2ncccc2[nH]1`, the displacement was determined as 5.1%.

As to `O=C(N1CCSCC1)C(F)(F)C(F)(F)C(F)(F)C(F)(F)F`, the displacement came to 1%.

With `C/C(=N\N)C1(O)CCC2C3CCC4=C/C(=N\N)CCC4(C)C3CCC21C` (stereo unspecified), the displacement is -9.4%.

For the compound `Cc1cc2c(cc1C)NC(CC(=O)Nc1ccc(Br)cc1)C(=O)N2` (stereo unspecified), the displacement is -21.4%.

For `Cc1cc(C(C)(C)C)cc(C(C)(C)C)c1NC(=O)Cc1ccccc1`, the displacement turned out to be 9.8%.

Take `Nc1ccc2oc(-c3cccc(Br)c3)nc2c1`: the displacement was -6.3%.

`Cc1ccc(C2=NN(C(=N)SC3CC(=O)N(c4ccc(C(=O)O)cc4)C3=O)C(c3ccc(Br)cc3)C2)cc1` (stereo unspecified): the displacement was found to be 3%.

In the case of `COc1ccccc1C(=O)Nc1ccc(C(=O)OC2CCCCC2)cc1`, the displacement was -3.8%.

For `CCC(=O)N1N=C(C)CC1(O)c1ccccc1` (stereo unspecified), the displacement is -1.9%.

As to `O=C(/C=C\Nc1ccccc1NS(=O)(=O)c1ccccc1)c1ccc(F)cc1`, the displacement was found to be 10.4%.

With `O=C(O)c1cc2cc(OCc3ccccc3)c(OCc3ccccc3)cc2o1`, the displacement stood at 11.4%.

As to `COc1cccc2cc(C(N)=O)c(=O)oc12`, the displacement was -0.3%.

In the case of `CCSc1nc(O)c(Cc2ccccc2)c(=O)n1-c1ccc(C)cc1`, the displacement worked out at 6.8%.

Take `Cc1cc(Cl)ccc1OCC(=O)Nc1ccc(Br)cn1`: the displacement was found to be 3%.

Consider `Cc1ccc(NC(=O)c2c(NC(=O)c3ccc(C)cc3)sc3c2CCC3)cc1`, for which the displacement was -8.7%.

Take `COc1ccc(/C=C/C(=O)NC(=S)Nc2ccc(C(C)=O)cc2)cc1OC`: the displacement was 10.6%.

Turning to `O=C(NC(=S)Nc1ccc(-c2nc3ccccc3s2)cc1)c1ccc(Cl)cc1`, the displacement was found to be 1.7%.

As to `CN(C)CCC#CC1(O)c2ccccc2-c2ccccc21`, the displacement worked out at 9.9%.

Take `O=C(Nc1ccc(Cl)cc1C(F)(F)F)c1ccc(I)cc1`: the displacement was 0%.

For `COc1ccc(-c2n[nH]c(=S)n2N)cc1OC`, the displacement was -27.2%.

As for `CCC1=NN(C(=O)c2cccc(OC)c2)C(O)(c2ccc(Br)cc2)C1` (stereo unspecified), the displacement is -9.3%.

As to `S=c1[nH]nc(-c2ccccc2)n1/N=C/c1ccc2c(c1)OCO2`, the displacement stood at 0.6%.

With `CCOc1ccccc1NC(=O)c1ccc(CN2CCOCC2)cc1`, the displacement was found to be 4.5%.

As to `CCOC(=O)CNS(=O)(=O)c1c(C)cc(C)cc1C`, the displacement is -14%.

Turning to `O=C(C(c1ccccc1)c1ccccc1)N1CCN(c2ccc([N+](=O)[O-])cc2)CC1`, the displacement was 0.3%.

Take `CC1=CC(=O)N(c2ccc([N+](=O)[O-])cc2)C1=O`: the displacement was -2.5%.

Take `O=C(O/N=C(/c1ccncc1)c1ccc([N+](=O)[O-])cc1)c1ccc(Cl)cc1Cl`: the displacement was 1.9%.

In the case of `O=C(CSc1ccccn1)Nc1ccc2c(c1)C(=O)c1ccccc1C2=O`, the displacement came out at 54.6%.

Regarding `COc1ccc(NC(=O)C(=O)N/N=C/c2ccc(O)c(OC)c2)cc1`, the displacement came to 0.8%.

For `O=C1NC(=S)NC(=O)C1=Cc1ccc(-c2ccccc2C(=O)O)o1`, the displacement turned out to be 16.1%.

Regarding `C=CCC1(O)C(C)C(c2ccccc2)NC(c2ccccc2)C1CCC` (stereo unspecified), the displacement came to 10.3%.

Take `O=C(NCc1ccccc1)C1CC(=O)N(c2ccc(Cl)cc2)C1` (stereo unspecified): the displacement came to 10.4%.

In the case of `O=C(Nc1ccc(N2CCOCC2)cc1)c1sc2ccccc2c1Cl`, the displacement was -5.6%.

Regarding `CCOC(=O)c1ccccc1NC(=O)CN(c1ccccc1)S(=O)(=O)c1ccccc1[N+](=O)[O-]`, the displacement was -8.3%.

Take `CC(C)Oc1ccc(/C=C(/NC(=O)c2ccccc2)C(=O)NCCCO)cc1`: the displacement was determined as 4.3%.

For the compound `Cc1nc2ccccc2n1/N=C/c1ccccc1`, the displacement was -2.2%.

On to `COC(=O)c1c(NC(=O)c2ccc(Cl)cc2Cl)sc(Cc2ccccc2)c1C`, for which the displacement was 9.2%.

As to `Cc1ccc(-c2nc3ccccc3o2)cc1NC(=O)C(Cl)(Cl)Cl`, the displacement stood at 5.3%.

`CC(C)NC(=O)c1cccc([N+](=O)[O-])c1`: the displacement was -3.6%.

For the compound `CCc1ccc(S(=O)(=O)N=Nc2c(O)[nH]c3ccccc23)cc1`, the displacement turned out to be 6.1%.

Consider `CC(=O)N1c2ccccc2NC2=C(C(=O)CC(c3ccccc3)C2)C1c1cccnc1` (stereo unspecified), for which the displacement is -18.2%.

With `CCC1(C)CC(CCNCc2ccc(N(C)C)cc2)(c2ccccc2OC)CCO1` (stereo unspecified), the displacement was determined as 2.2%.

For `CC(=O)C12c3ccccc3C(c3ccccc31)C1C(=O)NC(=O)C12` (stereo unspecified), the displacement came to 13.7%.

For `CCOc1ccc(CN2CCN(C(=O)c3ccc(-c4ccccc4)cc3)CC2)cc1`, the displacement was found to be 8.5%.

As to `CC(=O)N/N=C/c1cc(C)n(-c2ccc(Cl)c(Cl)c2)c1C`, the displacement was -6.4%.

As for `Cc1cc(C)nc(/N=C(/N)Nc2ccc(-c3ccccc3)cc2)n1`, the displacement is -16.3%.

For the compound `CCOc1ccc(/C=C2/C(=O)N(c3ccccc3)N=C2C)c(OCC)c1`, the displacement is 0.4%.

For the compound `CN1CCN(c2nc3ccccn3c(=O)c2/C=C2\SC(=S)N(CCc3ccccc3)C2=O)CC1`, the displacement worked out at 14.9%.

In the case of `COc1cc(/C=C2\C(=O)NC(=O)N(c3ccc(C)cc3)C2=O)ccc1OCc1ccc([N+](=O)[O-])cc1`, the displacement worked out at 70%.

With `O=C(c1ccc([N+](=O)[O-])cc1)N1CCN(C2CCN(Cc3ccccc3)CC2)CC1`, the displacement is -8.3%.

As to `CCOC(=O)CSC1=C(C#N)C(c2ccc(Br)cc2)CC(=O)N1` (stereo unspecified), the displacement was -9.6%.

With `CCN(CC)c1ccc(C2C(C(=O)OC(C)C)C(=O)CC(C)(O)C2C(=O)OC(C)C)cc1` (stereo unspecified), the displacement was -7.5%.

Turning to `O=C(ON1C(=O)c2ccccc2C1=O)c1ccccc1[N+](=O)[O-]`, the displacement was 15%.

For the compound `O=C(Nc1ccc(NC(=O)c2ccc(Cl)c(S(=O)(=O)N3CCOCC3)c2)cc1)c1ccccc1`, the displacement was -5.2%.

Consider `CCOC(=O)c1c(C)nc(-c2ccccc2)nc1NC(=O)C(C)C`, for which the displacement is -19.4%.

Regarding `CN(C)c1ccc(C(=O)NCc2ccc(S(N)(=O)=O)cc2)cc1`, the displacement came to 21.7%.

In the case of `COc1ccc(C2/C(=C(\O)c3ccccc3)C(=O)C(=O)N2CCN(C)C)c(OC)c1` (stereo unspecified), the displacement was found to be 1.7%.

In the case of `COc1ccc(CCNC(=O)CSc2nnc(-c3ccco3)n2-c2ccccc2)cc1OC`, the displacement is -10.4%.

Consider `CCOc1ccc(N(CC(=O)NCCSCc2ccc(Cl)cc2)S(C)(=O)=O)cc1`, for which the displacement is -1.8%.

On to `O=C(NCc1ccco1)c1ccc(S(=O)(=O)N2CCOCC2)cc1`, for which the displacement stood at 11.3%.

Regarding `Cc1ccccc1NC(=O)CCC(=O)N/N=C/c1ccncc1`, the displacement was -7.9%.

Take `COc1ccc2ccccc2c1/C=C1\SC(=S)N(c2ccccc2)C1=O`: the displacement was 9%.

Take `CCN(CC)c1ccc(NC(=O)C(C)Oc2ccc(Cl)cc2Cl)cc1` (stereo unspecified): the displacement was found to be 8.6%.

As to `Cc1[nH][nH]c(=O)c1C(c1ccccc1Cl)C(C#N)C#N` (stereo unspecified), the displacement is -6%.

For the compound `CCc1nnc(NC(=O)CN2C(=O)/C(=C/c3cc(OC)c(OC)c(OC)c3)SC2=S)s1`, the displacement was -0.3%.

As for `O=C(CCCCCN1C(=O)c2ccccc2C1=O)Nc1ccc(F)c(Cl)c1`, the displacement worked out at 4.5%.

Consider `CCNC(=O)c1ccc(Cl)cc1Cl`, for which the displacement came out at 2%.

On to `CC1=CC(C)(C)N(C)C(=S)N1c1ccccc1`, for which the displacement turned out to be 13.5%.

As to `CC(=O)Oc1ccc(-c2cccc(C(=O)Nc3cccc([N+](=O)[O-])c3)c2)cc1`, the displacement turned out to be 4.5%.

For the compound `Cc1cc(C)c(NC(=O)CN2C(=O)c3ccccc3C2=O)c(C)c1`, the displacement worked out at 13.1%.

Consider `O=c1nc(N(c2ccccc2)c2ccccc2)[nH]c(=O)[nH]1`, for which the displacement is 0.8%.

On to `COC(=O)c1c(NC(=O)c2cc([N+](=O)[O-])cc([N+](=O)[O-])c2)c(C#N)c(C)n1-c1ccccc1`, for which the displacement is -3.4%.

For `COc1ccc(N(CC(=O)NCCc2ccccc2)S(=O)(=O)c2ccc(C)cc2)cc1OC`, the displacement turned out to be 3.6%.

For the compound `CCCCOC(=O)c1ccc(NC(=O)c2ccccc2OC)cc1`, the displacement was 0.3%.

For the compound `O=[N+]([O-])c1cc(C(F)(F)F)ccc1N/N=C/c1ccc2c(c1)OCO2`, the displacement came out at 12.2%.

Turning to `COc1ccc(OCC(=O)Nc2ccc(I)cc2Cl)cc1`, the displacement was 8.4%.

Take `Cc1cccc(C2=N/C(=C\c3ccc(OS(=O)(=O)c4ccccc4)cc3)C(=O)O2)c1`: the displacement is -8.8%.

For the compound `O=C(CSc1ccccc1C(=O)O)Nc1ccccc1`, the displacement came to 8%.

Turning to `CCOC(=O)c1c(C)oc2ccc(OCC(=O)c3ccc(Br)cc3)cc12`, the displacement came to 15.7%.

Turning to `COc1cc(C(=O)Nc2c(C)cc(Br)cc2C)cc(OC)c1OC`, the displacement stood at 9.6%.

With `Cc1ccc(NCC(=O)N/N=C\c2cc(Cl)ccc2O)cc1`, the displacement is -10.2%.

As to `O=C1c2ccccc2C(=O)N1CCCCN(C(=O)c1ccccc1)c1ccc(F)cc1F`, the displacement is -11.5%.

For `CC1=C(C(=O)Nc2ccc(Cl)cc2)C(c2cccc3ccccc23)NC(=S)N1` (stereo unspecified), the displacement stood at 0.7%.

`CCCCCCCCCCCCSC1=C(C#N)C2(CCN(C)CC2)C(C#N)C(=O)N1` (stereo unspecified): the displacement was -1.3%.

Consider `COc1cccc(N=Cc2c(O)n(-c3cc(OC)ccc3OC)c(=O)[nH]c2=O)c1`, for which the displacement is -2%.

`O=C(NN1C(=O)/C(=C/c2ccc(O)c([N+](=O)[O-])c2)SC1=S)c1ccccc1Cl`: the displacement is -21.5%.
